In the RNAGym collection of RNA variant scans (doi:10.1093/nar/gkz1192):
The source gives no read counts; variants with many changes may rest on few reads.

B1: CPEB3 Ribozyme (parent)
chain: UAACAGGGGGCCACAGCAGAAGCGUUCACGUCGCAGCCCCUGUCAGAUUCUGGUGAAUCUGCGAAUUCUGCUGUAUAUCUC

Variants of: B1
Test: self-cleavage, relative activity (ratio to wild type); higher = more cleavage; in vitro, sequencing
How it was run: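 Libraries of CPEB3 self-cleaving ribozyme mutants came from rounds of error-prone PCR and carried barcodes, which DNA sequencing matched to variants. In vitro transcription used T7 RNA polymerase at 37°C for 5 hours, with a further 15 min in DNase I before EDTA stopped the reaction; the ribozymes cleaved during both steps. The RNA was reverse transcribed with template switching and sequenced on Illumina. Relative activity is the cleaved/total read fraction of a variant divided by that of the unmutated ribozyme, averaged over three batches with at least 5 reads.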
Work on C17U C32G C59A U67A U74A U80A yielded a self-cleavage of 0.03. Work on G16U U43A A64G yielded a self-cleavage of 0.13. C17U U76C U80C gave a self-cleavage of 1.14. For A18G A21U C29U C50U, the self-cleavage was 0.04. In the case of C17U C29U U60C, the self-cleavage is reported as 0.25. In the case of A18G A28G U31C C62U, the self-cleavage is reported as 0.28. In the case of A18G A21U U26A U41C U69C, the self-cleavage is reported as 0.13. Work on C17U A20C U41C A45G U49A A64G U69C yielded a self-cleavage of 0.02. Work on C17U A28G C50U yielded a self-cleavage of 0.62. In the case of C17A A28G A45U, the self-cleavage is reported as 0.19. A18C A45C A57G U72C gave a self-cleavage of 0.09. With C17G A35G A47G the self-cleavage was 1.01. In the case of G16C G24U U25C G52C U69C, the self-cleavage is reported as 0.07. Work on C17U U51A U66C yielded a self-cleavage of 0.31. Variant C17U A45G A64U has a self-cleavage of 0.17. In the case of G16U U25C U31C U66C U72A U80C, the self-cleavage is reported as 0.05. C17G A18G A45U U69C U72C gave a self-cleavage of 0.18. Variant A18G A21G U26A U43A A45U A56G U60C has a self-cleavage of 0.03. A18C U43C U72C U76C gave a self-cleavage of 0.24. Variant A18G A21G A45U A64G has a self-cleavage of 0.49. For A18C G30A U48C U54A U67C, the self-cleavage was 0.12. For C17U U43C A45G C59U U69A, the self-cleavage was 0.23. Work on C17G A47G U48C yielded a self-cleavage of 0.3. A18C G33U U48C U49C C62U gave a self-cleavage of 0.12. For C17U A18U U48C U51C U72C, the self-cleavage was 0.11. For C17U A28U A35U A56G, the self-cleavage was 0.18. G16U U31C A35G U67C A77G U78C showed a self-cleavage of 0.11. For A18G A20G A65G U69C, the self-cleavage was 0.22. C17U A18G U31C G46U U49C U66C showed a self-cleavage of 0.06. For A18C U26C A35U U48C A65G, the self-cleavage was 0.18. For G16U C32U G33A U67C, the self-cleavage was 0.09. Work on A18C A21G U66C yielded a self-cleavage of 0.59. With G16U U26C U66A the self-cleavage was 0.07. With G16U A35G U43C U69A the self-cleavage was 0.4. C17G C34A G36U gave a self-cleavage of 0.05. In the case of C17U A21G A35U U72A, the self-cleavage is reported as 0.14. In the case of A18G A21G U43C U51A, the self-cleavage is reported as 0.25. Work on A18C A21U C27A U41C yielded a self-cleavage of 0.15. For A18G A28G A35G C40A, the self-cleavage was 0.07. In the case of C17U A21G U26A A35U U66C U72A U74C, the self-cleavage is reported as 0.07. With A18C A57G G63A C81A the self-cleavage was 0.57. A18G A28G G30C U49C gave a self-cleavage of 0.15. A18G A20G U25C U31C G61C U66C U74A showed a self-cleavage of 0.14. For C17U U43C A47G A56G, the self-cleavage was 0.15. C17U C23G U72C gave a self-cleavage of 0.12. In the case of C17A U26A C50A U60C A77G U78C, the self-cleavage is reported as 0.05. In the case of A18C U49C G53A, the self-cleavage is reported as 0.21. With C17A A35G C68A the self-cleavage was 0.38. Variant A18C A28G A45U U69C has a self-cleavage of 0.24. For A18G A21G U26C U67A, the self-cleavage was 0.32. Work on A18G A21G C27G C44U A47U yielded a self-cleavage of 0.02. C17G A18U U25A U72A A77U gave a self-cleavage of 0.07. Variant G16C U31C U41C has a self-cleavage of 0.2. With C17U C27U U31A C32A the self-cleavage was 0.23. A18G A21G C37A U69A gave a self-cleavage of 0.26. C17U A28G U43C A77U gave a self-cleavage of 0.11. For C17U A20U A45U A64G, the self-cleavage was 0.07. In the case of A18G A20U U58C, the self-cleavage is reported as 0.06. Work on A18C A21U C44A A56U U58C A64U yielded a self-cleavage of 0.03. A18C U51C G52U A56G A64G U72C U80C showed a self-cleavage of 0.09. A18C A45U A65G showed a self-cleavage of 0.21. In the case of A18G A28G U31C, the self-cleavage is reported as 0.3. For C17U U58C A75U, the self-cleavage was 0.35. Variant C17U A20G U41C A65U has a self-cleavage of 0.4. With G16U C23A U26G U72A U76C the self-cleavage was 0.05. In the case of A18G A21G A56G U80C, the self-cleavage is reported as 0.45. Work on A18G A21U C34U A35G U49C U51A U67G yielded a self-cleavage of 0.05. For A18G A21G G33U U72G U80A, the self-cleavage was 0.08. A18C U31C G36A U54C C59A showed a self-cleavage of 0.16. G16U A35U A57G A64U gave a self-cleavage of 0.12. Variant A18C U67G U69C has a self-cleavage of 0.09. Work on G16U U31C U41C A57G U78C yielded a self-cleavage of 0.13. For A18G A21U A35C G36U C71G U78G, the self-cleavage was 0.05. With G16U A45G A75G the self-cleavage was 0.24. With C17U U72A U80A the self-cleavage was 0.24. Work on A18G A21C U58C U80C yielded a self-cleavage of 0.28. C17G C23U U26C gave a self-cleavage of 0.18. Variant C17U U31C A65G U72C U74C has a self-cleavage of 0.13. Variant A18C U25A U60C has a self-cleavage of 0.18. For C17U U41A U48C U51A A65G U72C, the self-cleavage was 0.07. Work on C17U U26C U58C U67C U72C yielded a self-cleavage of 0.11. With G16U A35C U49C A57G A64U the self-cleavage was 0.1. Variant G16U A35U C37A U41A U66C has a self-cleavage of 0.18. C17A G42U A45U A47G showed a self-cleavage of 0.04. Variant C17U U41A U49C U80A has a self-cleavage of 0.25. For C17U U41C C44G A45G A65G U74C, the self-cleavage was 0.07. With A18G A21G U25C U43C the self-cleavage was 0.39. With C17G A18G C34U A45U the self-cleavage was 0.07. C17U C34G C81G showed a self-cleavage of 0.29. C17U A45G U60C C62U A75U gave a self-cleavage of 0.1. In the case of C17A A28U C62G, the self-cleavage is reported as 0.08. C17G U26A A35G U41C G46A gave a self-cleavage of 0.06. In the case of G16U U49C U60C U69A, the self-cleavage is reported as 0.06. C17G A20G U26C G53A U60C gave a self-cleavage of 0.25. C17G G33A U48C A56G U78C gave a self-cleavage of 0.06. In the case of G16U C27A U41A U51C U72C, the self-cleavage is reported as 0.11. For C17U U54C C81A, the self-cleavage was 1.17. For A18G A21G A45G U48A U54A, the self-cleavage was 0.47. For C17U U26A C37U U41C U48C U76C, the self-cleavage was 0.09. Variant A18C U51C G73A has a self-cleavage of 0.63. Work on C17U G19A U25C A35G U43C A56G yielded a self-cleavage of 0.09. For C17G A21G A45U A75U A77U, the self-cleavage was 0.2. Work on C17G C40U U67C yielded a self-cleavage of 0.09. With G16U U41C A77G the self-cleavage was 0.36. Variant A18G A28C U31G U48A U67C has a self-cleavage of 0.17. C17U U48C A64G U74A showed a self-cleavage of 0.23. C17U A18U U51A U72C U76C showed a self-cleavage of 0.24. Variant G16U C23A U48C A64G U69C has a self-cleavage of 0.06. Variant A18G A28C C44G A57G has a self-cleavage of 0.19. For A18G A28G A45G U80G, the self-cleavage was 0.37. Variant C17U U41G U67C has a self-cleavage of 0.17. Variant C17G C29A U60A U69C has a self-cleavage of 0.08. Variant A18C A35C A77G has a self-cleavage of 0.11. Work on C17U U25C U31C A35G U78A yielded a self-cleavage of 0.09. A18G A20G U51A U72C gave a self-cleavage of 0.15. For A18G A21U C40U U48A U69C U78C, the self-cleavage was 0.07. G16U U41A U58A U69C gave a self-cleavage of 0.08. With C17A A45U U49G U51C A56G U72A U76C the self-cleavage was 0.14. Work on C17U G19C C40A U54G A64G U72G yielded a self-cleavage of 0.03. Work on C17U A20U A77G yielded a self-cleavage of 0.15. With A18C U49C A65G U72C the self-cleavage was 0.07. Variant C17U U26C A45U U54C has a self-cleavage of 0.11. With A18G A21G U31G A47G U48A the self-cleavage was 0.09. Variant G16U A18G G24A A28U U51C U69C A77C has a self-cleavage of 0.05. With C17U U25A U54C the self-cleavage was 0.24. For A18G A20U A28G U41A A45G, the self-cleavage was 0.33. Work on A18C A45G U49C U51A A64G yielded a self-cleavage of 0.11. Variant A18C A45G U51A A65G C79U has a self-cleavage of 0.3. In the case of C17G C32U A75U, the self-cleavage is reported as 0.35. Work on A18C G19A U60C yielded a self-cleavage of 0.19. C17G C32U A56G showed a self-cleavage of 0.09. Work on A18G A21U A56U U69C U76C yielded a self-cleavage of 0.08. In the case of A18G A28C U48A C68A, the self-cleavage is reported as 0.13. C17U U54C A64G showed a self-cleavage of 0.22. Variant A18C U25C A56G has a self-cleavage of 0.43. With G16C U31C A64G the self-cleavage was 0.1. In the case of A18C U51A U80C, the self-cleavage is reported as 0.31. For C17A C34G C68G, the self-cleavage was 0.09. C17U A20G A21G U25C C44A C62U gave a self-cleavage of 0.03. Work on C17G C23G U26A yielded a self-cleavage of 0.33. A18C A56G A77G gave a self-cleavage of 0.39. C17U U54A U67C showed a self-cleavage of 0.1. In the case of A18G A20U U60C, the self-cleavage is reported as 0.1. With A18G A20U C37U U69C U76C the self-cleavage was 0.11. With A18C U72C U80A the self-cleavage was 0.53. A18G A20C U25C U67C gave a self-cleavage of 0.07. Variant A18C C23U A45G U51A U69A U78A has a self-cleavage of 0.06. Variant A18C U31A U41C has a self-cleavage of 0.8. For A18C U58C A75U A77G, the self-cleavage was 0.17. A18G A21G U26C gave a self-cleavage of 0.11. With A18G A28G C29U A45C the self-cleavage was 0.31. With A18G A21G G30A A45G U58C the self-cleavage was 0.08. Work on A18C C23U U41C yielded a self-cleavage of 0.2. Variant C17U U72C U80G has a self-cleavage of 0.45. With A18G A20G U43C the self-cleavage was 0.08. Work on A18C U31A A45G U51C A64U yielded a self-cleavage of 0.07. C17G A47G A56G showed a self-cleavage of 0.3. A18C A35G U43C A45G showed a self-cleavage of 0.09. In the case of C17U U66C U69G, the self-cleavage is reported as 0.12. C17G A35U U54C U80C showed a self-cleavage of 0.05. With G16U C62U U78A the self-cleavage was 0.06. Variant G16U A21G G30C has a self-cleavage of 0.07. In the case of A18C U25C C40U U51C U74A A75G, the self-cleavage is reported as 0.11. A18G A21G A35U U51G gave a self-cleavage of 0.33. In the case of C17U A20G C38A U41G U43A, the self-cleavage is reported as 0.13. In the case of C17A U25C U26C, the self-cleavage is reported as 0.07. With C17G A18C A20U C27U A28G A35G the self-cleavage was 0.03.
